Like-named read-outs stand apart in the source and are kept apart here. Not every detail of the peptide structures is certain; ends, links or a residue may be inferred. Ends that are not written are not given here.
Assays:
[1] = molecular target: T1, Region II of the P. vivax Duffy antigen binding protein (DABP) (Plasmodium vivax, UniProt P22290); assay type: cell-based; details: peptide concentrations up to 100 μM
T1 construct: expressed in transfected cells; host or cells: Cos7 cells (ATCC CRL 1651)
T1 sequence (P22290 211-521): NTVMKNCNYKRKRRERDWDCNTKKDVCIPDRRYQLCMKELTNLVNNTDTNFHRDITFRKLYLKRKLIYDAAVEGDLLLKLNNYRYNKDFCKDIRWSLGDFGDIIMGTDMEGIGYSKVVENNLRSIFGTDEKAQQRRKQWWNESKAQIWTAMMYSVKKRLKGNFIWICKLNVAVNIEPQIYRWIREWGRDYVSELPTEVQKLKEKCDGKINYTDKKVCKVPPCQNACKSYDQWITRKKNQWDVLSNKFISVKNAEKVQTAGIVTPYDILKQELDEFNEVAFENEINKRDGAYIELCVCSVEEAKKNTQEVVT

[2] = system: malarial Duffy-binding ligand; experiment: Binding affinity of Duffy peptides for the malarial Duffy-binding ligand; details: in words
[3] = system: Region II of the P. knowlesi Duffy antigen binding protein (α); experiment: Cos cell erythrocyte binding inhibition assay, P. knowlesi α Region II, rhesus erythrocytes; assay type: cell-based, Plasmodium knowlesi; details: for inhibition of binding of rhesus erythrocytes to Region II of the P. knowlesi Duffy antigen binding protein (α): in words
[4] = system: Region II of the P. knowlesi β protein; experiment: Cos cell erythrocyte binding inhibition assay, P. knowlesi β Region II, rhesus erythrocytes; assay type: cell-based, Plasmodium knowlesi; details: for IC50: P. knowlesi β Region II on Cos cells, Rhesus erythrocytes, >100 = less than 5% inhibition at 100 μM; for effect on binding of rhesus erythrocytes to Region II of the P. knowlesi β protein: concentrations up to 100 μM, specificity control
[5] = system: Region II of the P. knowlesi Duffy antigen binding protein (α); details: for IC50: P. knowlesi α Region II on Cos cells, Human Fy(a+b+) erythrocytes, average ± SD (number of experiments)
[6] = system: Rubinstein anti-Fy6 antibody; experiment: Binding of the Rubinstein anti-Fy6 antibody to Duffy peptides (ELISA); parameters: species or system murine
[7] = read-out: RHPEP34 50% Inhibition Conc.
[8] = read-out: HPEP35 50% Inhibition Conc.

Which “effect on binding of human erythrocytes to Region II of the P. vivax protein” value (“effect on binding … of the P. vivax protein” for short) [1] does the source give for DFEDVWNSSYGVNDSFPDGDYD [HPEP22] here?
Its value is “no effect”.

And the “binding affinity for malarial Duffy-binding ligands” value (from here on “binding affinity”) [2]?
Its value is “no significant binding affinity”.

For AELSPSTENSSQL [HPEP13, AELSPSTENSSQL], which “effect on binding … of the P. vivax protein” value [1] is on record?
Its value is “no effect”.

What about the “binding affinity” value [2] of the same sequence?
Its value is “no significant binding affinity”.

How did the “inhibition of binding of rhesus erythrocytes to Region II of the P. knowlesi Duffy antigen binding protein (α)” value [3] turn out when “AELSPSTQNSSQLNSDLWNFSYDGNDSFPDVDYD [RHPEP34]” was run?
The value was “inhibit”.

What about the IC50 [4, 7] of the same sequence?
Its IC50 is over 100 µM.

What about the “effect on binding of rhesus erythrocytes to Region II of the P. knowlesi β protein” value [4] of the same sequence?
The value was “does not inhibit”.

And the “inhibition of binding of human erythrocytes to Region II of the P. knowlesi Duffy-binding protein” value ([5]; in words)?
Its value is “inhibit”.

What about the IC50 [5, 7] of the same sequence?
Its IC50 is 5.5 ± 3.9 µM.

Which “binding in an ELISA assay (Rubinstein antibody)” value [6] does the source give for “MASSGYVLQAELSPSTENSSQLDFEDVWNSSYGVNDSFPDGDYD [SEQ ID NO:10]” here?
The value was “bind”.

Which IC50 ([3]; P. knowlesi α Region II on Cos cells, Rhesus erythrocytes, average ± SD (number of experiments), read-out: HPEP35 50% Inhibition Conc.) does the source give for “AELSPSTENSSQLDFEDVWNSSYGVNDSFPDGDYD [HPEP35]” here?
Its IC50 is 13.1 ± 6.7 µM.

And the “inhibition of binding of rhesus erythrocytes to Region II of the P. knowlesi Duffy antigen binding protein (α)” value [3]?
The value was “inhibits”.

And the IC50 [4, 8]?
Its IC50 is over 100 µM.

What about the “effect on binding of rhesus erythrocytes to Region II of the P. knowlesi β protein” value [4] of the same sequence?
Its value is “no effect”.

And the “binding affinity” value [2]?
Its value is “significant and specific binding affinity”.

And the IC50 [5, 8]?
Its IC50 is 4.1 ± 2.7 µM.

Which “effect on binding … of the P. vivax protein” value [1] does the source give for PSTENSSQLDFEDVWNSSYGVNDS [HPEP3850] here?
The value was “no effect”.

And the “binding affinity” value [2]?
The value was “does not bind”.

— patent US5911991A, “Malarial binding site in duffy blood group protein” (New York Blood Center, Inc., priority 1996, dated 1999)
